From the RNAGym collection of RNA variant scans (doi:10.7554/elife.90254) come the findings set out here.

B1: OR4K15 (parent)
chain: GUUAACGGUCAUAGGCCAUGGAAACUAGGAGCACCAUUUCGCUGCCAGUGAAGAAAUGAACAAAGAAAAUCUGGGCCAGGCAGGCAUCAAAAGAAAUAGUCUUGCGCUCAACCAGAAAGUCUGUAAUCAUUUUAAGGGUA

Read counts are not given, so values of variants with three or more changes are uncertain.

This series covers variants of B1. As to the kind of experiment: self-cleavage, relative activity (ratio to wild type); higher = more cleavage; in vitro, sequencing; the parent is a self-cleaving ribozyme.
As to A23G A54G G138C, the self-cleavage amounted to 0.64. For A23G G44A U102C U103A A110C U122A A140G, the self-cleavage worked out at 0.02. Take A22G C32U A60U: the self-cleavage worked out at 1.92. On to A22G A86G A98G, for which the self-cleavage was found to be 0.14. Turning to A23G A24G A51G A69U, the self-cleavage worked out at 1.32. For A23G G48U U49A A60U A63G A92G the value was 0.58; for A22U U49C A125G A126U C128U U130C, 0.65. As to A23G A60G A89G A118G, the self-cleavage was found to be 1.15.

Regarding A22G A111G U122C G138A, the self-cleavage was 0.01. As to A22G A82C A117G, the self-cleavage was found to be 0.18.

As to A22G A90G A92G A116G, the self-cleavage was found to be 0.1. For A22G U132C A134G the value was 0.65.

Take A23G A54G A55G U70A G138A: the self-cleavage is 0.3. With A23G A111G A118G, the self-cleavage was found to be 0. Consider A23G A64C A140G, for which the self-cleavage turned out to be 2.19.

As to A22G A91G A92G U133G, the self-cleavage was determined as 1.32. Regarding A23G A55G A60G U87A A98G, the self-cleavage worked out at 0.45. As to A22G A78C A110G, the self-cleavage amounted to 0.04. Consider A22G U87C A90G A111G U120C A126G U127C, for which the self-cleavage turned out to be 0.01. Consider A22G A96C U127C, for which the self-cleavage was 0.65. For A22G G73C G74C A110G, the self-cleavage was determined as 0.01. As to A23G U37C A91G A114G, the self-cleavage was found to be 0.11.

Regarding A23G A89G U103C, the self-cleavage came to 0.25. For A22G A92G U100C C109U A118G C121U the value was 1.24; for A23G A126G U131C, 0.35; for A22U A55G U87C C105A A135U, 0.01.

Consider A23G C40A A55G A56U A140G, for which the self-cleavage was found to be 0.6.

Take A22G A117G A140G: the self-cleavage is 0.22.

On to A22G U49G A111G, for which the self-cleavage came out at 0.05. As for A22G U43A A86G U132C, the self-cleavage is 1.42.

Consider A23G A55U A67G, for which the self-cleavage worked out at 0.83. Take A23G A126G U127C: the self-cleavage was determined as 0.55. With A23G A55G A118G U120A U127C U130C, the self-cleavage was 0. In the case of A23C U108C A114U, the self-cleavage is 0.01. A22G U49G A126G: the self-cleavage came out at 0.65. For A23G A51G A90G, the self-cleavage was found to be 0.94. For A22U G28A U120A the value was 1.41. For A22G G48A A60G the value was 1.06. For A22U A47U A64G U70C, the self-cleavage turned out to be 0.63. For the variant A22G U38C U102C A126G, the self-cleavage is 1.19. Take A23G C113A A114G: the self-cleavage stood at 0.02.

On to A23G A56G U57A A90G U103C, for which the self-cleavage is 0.11. A22U A30U U43C A52G A89G U100C: the self-cleavage came to 1.

On to A22G U37G A117G, for which the self-cleavage turned out to be 1.43. On to A23G A33G A68G, for which the self-cleavage was found to be 0.76.

Take A23G A52G A59G: the self-cleavage was 1.34.

In the case of A22U U38C U103C A135U, the self-cleavage came out at 2.04. In the case of A23G A62G U70C, the self-cleavage was found to be 0.34. For A22U U49C A64U U87C the value was 1.4; for A23G A94U U120C A126G, 0.93. As to A23G G31C U49C A64C U132C, the self-cleavage worked out at 1.36. For the variant A22G U49C A59G, the self-cleavage worked out at 1.26. In the case of A23G C32U A55U U139C, the self-cleavage is 1.36. As to A23G A62G A118G, the self-cleavage is 0.63.

For A22U A24U A33G U37C A89G A95G, the self-cleavage amounted to 0.87. For A22G U97C U100C U132C the value was 2.57; for A22G U43A A90G A111G U120C, 0.01; for A23C U43C A56G U87A U108C, 0.01.

Consider A22G U37C A92G A116G A117U, for which the self-cleavage was 0.52.

As to A22G U103G A118G U122C, the self-cleavage came out at 0.02. As to A23G A86G U87A G123A, the self-cleavage is 1.3. In the case of A23G A51G A54G U100A, the self-cleavage is 0.34. For A23G C77U A92G the value was 1.89. As for A23C U26A A56G U132C, the self-cleavage was 0.93. On to A22U A33C A95G A118G, for which the self-cleavage came out at 2.69. On to A23G C85U A95C, for which the self-cleavage amounted to 0.75. For A22G A110U A117G the value was 1.5; for A23G A78G A90G, 0.09; for A22G U49C A51G A117G, 1.23. Turning to A23G A54G A60G, the self-cleavage was determined as 0.35. For A23G A60U U102A G123C the value was 0.65; for A23G A54G A66G, 1.11. For A22G U72C U102C the value was 0.4; for A22U A30G U37C U100C C107G A118G U130C, 0.

As to A23G A51G U97A, the self-cleavage was determined as 1.56. For A22U A55G A91U U131C the value was 1.41. On to A22U U38A A67U A94G, for which the self-cleavage amounted to 1.78. On to A23G A60G U70C, for which the self-cleavage was found to be 0.44. For A23G U38C A51G U57C U87A the value was 1.17; for A23G U37C U49C A92G A95G, 1.53; for A22G A86G A95G, 0.7. As to A22G U49A U122A, the self-cleavage amounted to 1.48. In the case of A23G A82G U103C A117G, the self-cleavage amounted to 1.88.

As for A23G A54G A63G U132C, the self-cleavage was 1.05.

As for A22G U37C A64G, the self-cleavage was found to be 0.67. For A23G G44A U49C A56G A78G, the self-cleavage is 0.2. For A23G A62G A96G the value was 0.84; for A23C C81U A134G, 0.29.

For A22U A36G A98G A117U U130C, the self-cleavage was 0.31. On to A22U U43C A55G A94G, for which the self-cleavage was determined as 1.59.

Turning to A22U U57A A126G, the self-cleavage stood at 0.52.

In the case of A22U U38C U108G A110G, the self-cleavage amounted to 0.02.

For the variant A23G A51G A67C U70C, the self-cleavage was 0.31. For A23G A33G U39C A90G A125G, the self-cleavage came out at 0.29. Regarding A22G U43C U72A U127C, the self-cleavage stood at 0.15. As to A23G A51G A67G, the self-cleavage was determined as 0.93.

Consider A23G A66U A114U, for which the self-cleavage was 0.04. On to A22U U72A A91U, for which the self-cleavage stood at 0.22. For A23G A52G A114G the value was 0.4; for A23G A67U U127C, 0.29; for A23G A52G A95G A118U, 0.82. In the case of A22U A86G A92G U103A, the self-cleavage was determined as 0.31. For A23G A51G G136A the value was 1.21; for A22U U38C A55G A59G A64U A96G U97C A117G, 0.71. As for A23G A52G A117G, the self-cleavage is 1.84.

A22G U122C U127A U132C: the self-cleavage worked out at 0.44. For A23G A30G A60G U102A the value was 0.36. Take A23G A54G A117G: the self-cleavage was 1.73.

As for A22G U37C A68G U122C, the self-cleavage came out at 1.78. Regarding A23G A24G U37C A117G U130A, the self-cleavage was found to be 0.72.

As to A23G A36U A89U U120A, the self-cleavage came to 1.69. For A22G A95G U100C the value was 1.34; for A22G G28U U49C A69U, 1.92; for A22U A54U A116G U132A, 1.38. In the case of A23G A33G U37C, the self-cleavage is 0.85. In the case of A23G A47G U70C U100A, the self-cleavage is 0.09. As for A22G U72C A92G, the self-cleavage was 0.39. For the variant A22U A27G U39C A118U, the self-cleavage is 0.24.

For A23G A78G U103C, the self-cleavage stood at 0.14.

In the case of A23G C88U A96G, the self-cleavage is 2.29. Regarding A22G U57C U132C, the self-cleavage stood at 0.65. For A22U U39C A51G A68G A91G A114C the value was 0.11. A23G A54G A114U: the self-cleavage was 0.03.

A22U A55G A68G A98G: the self-cleavage came out at 0.15. Regarding A23G A52G A59G G73A, the self-cleavage turned out to be 0.39. Turning to A23G A36G U37C U122C, the self-cleavage was 1.01. On to A23G A78U A125G, for which the self-cleavage was 0.07. For the variant A23G A55G A89U A96G A117G, the self-cleavage is 2.8.

A23G A96G U122C: the self-cleavage came to 0. Take A23G A24G G41A A51G A63G U131C: the self-cleavage stood at 1.55. On to A23G A114G G138A, for which the self-cleavage was 0.36.

On to A22G A78G A86G A118G, for which the self-cleavage stood at 0.12. With A23G A67U A68G A82U, the self-cleavage came out at 0.44. For A22G U103C C109U the value was 0.1.

Regarding A22G U37C A118G U131C, the self-cleavage was 0.42. Take A22G U43C U57C: the self-cleavage is 0.76. For A22G A94G U102C the value was 2.01. For the variant A23G A30U A63G A78G, the self-cleavage was 0.33. Take A23G C76A A78G U100C: the self-cleavage came out at 0.08. Turning to A22G A90G A92C, the self-cleavage came to 0.29.

Turning to A23G A114G U124C, the self-cleavage is 0.18. For A23G A91G A110G G137A, the self-cleavage amounted to 0.18. As to A23G U26C U120C, the self-cleavage was 0.49. Take A22G A89U U127C: the self-cleavage worked out at 1.51. With A23G U26C A54G A64G A117U A118G, the self-cleavage was found to be 0.33.

Turning to A22U U49C G74A A118U, the self-cleavage came to 0.05.

A23G A111G U130C: the self-cleavage is 0.03. As for A22G G44A U97C U124G, the self-cleavage was found to be 0.31.

As for A22G U120C U132C A140G, the self-cleavage was 1.44. Regarding A22U A92G C101U, the self-cleavage is 0.56. Regarding A23G A60G A63G U122A, the self-cleavage turned out to be 0.87. Turning to A23G A30U A94G G115U, the self-cleavage is 0.02.

With A23C A90G A91G A125G, the self-cleavage turned out to be 0.21. Regarding A23C A30G A125U, the self-cleavage stood at 0.73. Regarding A23G A47G A59U A67G U131C, the self-cleavage was determined as 0.11. On to A23G A54U A64G, for which the self-cleavage worked out at 1.41.

As for A23G A36G U38C A52U, the self-cleavage stood at 0.62.

On to A23G A24G U100C U132C, for which the self-cleavage was 1.6. For A22G U100A U122A the value was 0.73; for A22U U39A A118U, 0.93.

A23G A62G U87C A95C U108C: the self-cleavage stood at 0.01. With A22G U87C A126U, the self-cleavage came out at 0.76. For A22G G58A G74U the value was 0.29. For A22G C42A U132C, the self-cleavage amounted to 0.32. A23G C32A U49C A98G U100G U108A A140G: the self-cleavage came to 0.02. Consider A22G A90G U132C, for which the self-cleavage worked out at 0.85. On to A23G A62G A78G, for which the self-cleavage worked out at 0.19.
